Source: PMC4336329 (PLoS ONE, 2015)
Screen size: about 310,000 compounds; about 2,200 (0.71%) showed an effect of 50% or more. Effects have a minus sign here. Some of the results follow.

biological target: human ether-à-go-go-related gene (hERG) potassium channel (human, UniProt Q12809); test: primary screen, population patch clamp on CHO cells stably expressing hERG
Sequence (Q12809 whole entry, looked up): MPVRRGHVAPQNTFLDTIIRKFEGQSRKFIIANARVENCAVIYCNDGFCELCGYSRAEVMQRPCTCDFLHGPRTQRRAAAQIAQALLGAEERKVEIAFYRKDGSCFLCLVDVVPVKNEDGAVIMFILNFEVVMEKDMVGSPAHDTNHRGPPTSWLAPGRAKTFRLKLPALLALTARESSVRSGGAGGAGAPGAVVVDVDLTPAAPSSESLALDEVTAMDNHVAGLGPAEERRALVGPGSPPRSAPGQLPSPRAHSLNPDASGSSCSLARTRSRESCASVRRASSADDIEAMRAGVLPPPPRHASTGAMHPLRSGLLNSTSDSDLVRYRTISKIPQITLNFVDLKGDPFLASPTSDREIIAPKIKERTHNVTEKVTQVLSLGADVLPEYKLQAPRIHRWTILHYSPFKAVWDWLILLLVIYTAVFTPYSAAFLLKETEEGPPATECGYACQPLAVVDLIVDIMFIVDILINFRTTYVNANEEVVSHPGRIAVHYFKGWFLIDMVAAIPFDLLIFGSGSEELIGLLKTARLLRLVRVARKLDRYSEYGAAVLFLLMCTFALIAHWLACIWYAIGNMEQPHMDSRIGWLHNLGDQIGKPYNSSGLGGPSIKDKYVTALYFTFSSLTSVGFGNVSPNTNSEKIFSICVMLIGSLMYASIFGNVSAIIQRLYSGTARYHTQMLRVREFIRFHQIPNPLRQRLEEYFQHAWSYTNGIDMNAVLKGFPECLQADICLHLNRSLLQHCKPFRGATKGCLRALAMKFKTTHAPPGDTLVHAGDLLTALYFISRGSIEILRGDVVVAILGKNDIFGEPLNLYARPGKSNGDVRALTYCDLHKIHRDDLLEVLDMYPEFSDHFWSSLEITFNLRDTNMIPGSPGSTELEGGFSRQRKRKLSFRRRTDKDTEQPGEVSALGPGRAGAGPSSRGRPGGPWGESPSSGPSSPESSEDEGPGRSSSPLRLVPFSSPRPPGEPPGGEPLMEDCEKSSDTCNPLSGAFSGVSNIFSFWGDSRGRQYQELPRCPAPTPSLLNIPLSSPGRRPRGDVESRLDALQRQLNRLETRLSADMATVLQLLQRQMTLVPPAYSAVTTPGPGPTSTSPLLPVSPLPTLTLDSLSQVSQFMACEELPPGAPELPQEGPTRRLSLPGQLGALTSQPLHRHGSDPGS

First: CC(=O)C(Sc1nnnn1-c1ccc(O)cc1)c1ccccc1 (centres unmarked)
Second: CCOC(=O)c1cn(-c2ccccc2)nc1-c1ccncc1
The “hERG current change (%, negative = inhibition) at 1uM” value of the first is higher: 2.98% for the first, 0.949% for the second.

First: CCn1c(O)c(N=NC(=O)CNC(=O)/C=C/c2ccccc2)c2ccccc21
Second: O=C(N/C=C/c1ccccc1)c1ccccc1
The “hERG current change (%, negative = inhibition) at 1uM” value of the first is lower: 5.65% for the first, 19.5% for the second.

First: CC(C)Oc1ncnc2c1[nH]c1ccccc12
Second: Clc1ccc(/C=C/c2nc3ccccc3[nH]2)c(Cl)c1
The “hERG current change (%, negative = inhibition) at 1uM” value of the first is higher: 11.9% for the first, -5.59% for the second.

Compared with `CCC(Sc1nc2sc(C(=O)OC)c(C)c2c(=O)n1N)C(=O)N(CC)CC` (centres unmarked), `CCOC(=O)c1sc(NC(=O)CSc2nc3c(c(=O)n2-c2ccc(C)cc2)SCC3)c(C(=O)OCC)c1C` is higher in “hERG current change (%, negative = inhibition) at 1uM” value: 7.93% for the first, 10.2% for the second.

Going from `O=C(NC1CCN(S(=O)(=O)c2cccc([N+](=O)[O-])c2)CC1)C1CCCCC1` to `CCN(CC(=O)Nc1c(F)cccc1F)C(=O)C1CCN(S(=O)(=O)c2ccc(C)cc2C)CC1`, the “hERG current change (%, negative = inhibition) at 1uM” value falls from 17.5% to -5.01%.

First: COC(=O)[C@H](C)NC(=O)Nc1cccc(C)c1
Second: Cc1cccc(NC(=S)Nc2cccc3ccccc23)c1
The “hERG current change (%, negative = inhibition) at 1uM” value of the first is higher: 13.2% for the first, 13.1% for the second.

Compared with `c1ccc(-c2cnc(-c3ccccc3)nc2)cc1`, `O=C(CN1CCN(c2ccccc2)CC1)N1N=CCC1c1ccccc1` (centres unmarked) is higher in “hERG current change (%, negative = inhibition) at 1uM” value: 2.59% for the first, 10.8% for the second.

First: CCCOC(=O)c1c(N)sc2c1CCC2
Second: CCCCOC(=O)CNc1n[nH]c(=S)[nH]c1=O
The “hERG current change (%, negative = inhibition) at 1uM” value of the first is higher: 15.5% for the first, 10.5% for the second.

Going from `Cc1ccc(-c2csc(NCCn3c(-c4ccncc4)nc4ccccc43)n2)cc1` to `CSc1nc2ccccc2n1Cc1cccc(F)c1`, the “hERG current change (%, negative = inhibition) at 1uM” value falls from 10.8% to 5.15%.

`CC(/C=N/NC(=O)c1cccc(F)c1)=C\c1ccccc1` and `O=C(COC(=O)Cc1cccc(C(F)(F)F)c1)Nc1ccccc1` are the same in “hERG current change (%, negative = inhibition) at 1uM” value: 13.8% for the first, 13.8% for the second.

Going from `COc1ccc(N=C2C(=Nc3ccc(OC)cc3)N(c3ccccc3)C(=S)N2C(=O)c2ccc(Cl)cc2)cc1` to `CC(C)(C)c1ccc(C(=O)CSc2nc3ccccc3c(=O)[nH]2)cc1`, the “hERG current change (%, negative = inhibition) at 1uM” value falls from 13.2% to -7.51%.

Going from `COc1ccccc1-n1c(SCC(=O)NC2CCS(=O)(=O)C2)nc2ccccc2c1=O` (centres unmarked) to `CCn1c(=O)cc(OCC(=O)NCCc2cccc(C)c2)c2ccccc21`, the “hERG current change (%, negative = inhibition) at 1uM” value falls from 7.29% to -1.1%.

Going from `COc1ccc(NC(=O)COC(=O)CCC(=O)c2cccs2)cc1OC` to `Cc1cc(C)cc(NC(=O)COC(=O)CCCC2=NS(=O)(=O)c3ccccc3N2)c1`, the “hERG current change (%, negative = inhibition) at 1uM” value rises from 2.62% to 4.27%.

Going from `CCn1cc(/C=N\NC(=O)Cc2ccc([N+](=O)[O-])cc2)c(C)n1` to `O=C(Cn1cnc([N+](=O)[O-])c1)Nc1ccccc1C(F)(F)F`, the “hERG current change (%, negative = inhibition) at 1uM” value rises from -2.04% to 0.327%.

First: Cc1ccc2[nH]cc(CCNS(=O)(=O)c3ccc(F)cc3)c2c1
Second: Cc1ccc(S(=O)(=O)NCC(=O)N2CCN(c3ccccc3F)CC2)cc1
The “hERG current change (%, negative = inhibition) at 1uM” value of the first is higher: 8.16% for the first, -4.09% for the second.

Going from `Cc1cc(NC(=O)CCN2C(=O)/C(=C/c3ccccc3F)SC2=S)no1` to `CCc1cc2c(s1)N(CC(=O)OC)C(=O)CN=C2c1ccccc1OC`, the “hERG current change (%, negative = inhibition) at 1uM” value falls from 12.2% to 11.1%.

Going from `CCCn1nc2ccccc2c1P(=N)(N1CCOCC1)N1CCOCC1.Cl` to `O=C(CCN1C(=O)COc2ccccc21)NCCN1CCOCC1`, the “hERG current change (%, negative = inhibition) at 1uM” value falls from 13.9% to 13.2%.

Compared with `OC(COc1ccc(CNCCc2ccccc2F)cc1)CN1CCCCC1` (centres unmarked), `CCN1C(=O)c2ccccc2Sc2ccc(C(=O)NCCCN3CCOCC3)cc21` is higher in “hERG current change (%, negative = inhibition) at 1uM” value: 4.53% for the first, 6.17% for the second.

First: COC(=O)c1ccc(CNC(=O)C2CCC(=O)N(CCN3CCOCC3)C2)cc1 (centres unmarked)
Second: COC(=O)CCC/C=C1/SCC(NC(=O)c2ccccc2)C1=O (centres unmarked)
The “hERG current change (%, negative = inhibition) at 1uM” value of the first is lower: 2.84% for the first, 5.35% for the second.

Going from `CC(C)[C@H]1C(=O)O[C@H](C(C)C)C(=O)N(C)[C@@H](C(C)C)C(=O)O[C@H](C(C)C)C(=O)N(C)[C@@H](C(C)C)C(=O)O[C@H](C(C)C)C(=O)N1C` to `Cn1c(=O)[nH]c(=O)c2c1nc(N1CCCCCC1)n2CCSc1nc2ccccc2o1`, the “hERG current change (%, negative = inhibition) at 1uM” value rises from 7.64% to 7.86%.

First: Oc1c(Cl)cc(Cl)c(Cl)c1Cc1c(O)c(Cl)cc(Cl)c1Cl
Second: O=c1ccc2ccc(Oc3ccc(Cl)cc3[N+](=O)[O-])cc2o1
The “hERG current change (%, negative = inhibition) at 1uM” value of the first is higher: 12.9% for the first, 12.3% for the second.

Compared with `CCC1CCCCN1CCCNC(=O)Cn1ncc2c(C)n(Cc3ccccc3Cl)c(C)c2c1=O` (centres unmarked), `CCn1ncc(CN2CCN(Cc3ccc(OC)c(C)c3C)C(CCO)C2)c1C` (centres unmarked) is lower in “hERG current change (%, negative = inhibition) at 1uM” value: 3.48% for the first, 2.28% for the second.

Compared with `O=C(Cn1nc(C(=O)O)c2ccccc2c1=O)NC12CC3CC(CC(C3)C1)C2`, `NC(=O)C1CCN(C(=O)c2cnn(-c3ccccc3)c2NC(=O)c2ccco2)CC1` is lower in “hERG current change (%, negative = inhibition) at 1uM” value: 8.28% for the first, 7.41% for the second.

First: CC1=CS(=O)(=O)CC1SC(=S)N(C)C1CCS(=O)(=O)C1 (centres unmarked)
Second: CC(C)C[C@H]1CN=C(Nc2ccccc2)N1CC1CCC1
The “hERG current change (%, negative = inhibition) at 1uM” value of the first is higher: 24.3% for the first, -2.29% for the second.

First: CC(C)(C)NC(=O)CSC(=Nc1ccccc1F)NC#N
Second: Cn1c(SCC(=O)C(C)(C)C)nnc1-c1cccnc1
The “hERG current change (%, negative = inhibition) at 1uM” value of the first is higher: 8.27% for the first, 0.695% for the second.

First: CCSc1nnc(NC(=O)c2c(C)noc2C)s1
Second: Cc1nnc(N(Cc2ccco2)C(=O)c2ccno2)s1
The “hERG current change (%, negative = inhibition) at 1uM” value of the first is lower: 11% for the first, 12.3% for the second.

Compared with `CCC(=O)Nc1ccc(NC(=O)CSc2nc3cc4c(cc3cc2C)CCC4)cc1`, `CCn1c(SCC(=O)Nc2ccc3c(c2)OCO3)nnc1-c1cnccn1` is lower in “hERG current change (%, negative = inhibition) at 1uM” value: 6.79% for the first, -5.88% for the second.

Compared with `O=c1c(C=Nc2cccc(C(F)(F)F)c2)c[nH]n1-c1cccc(Cl)n1`, `CCN(CC)S(=O)(=O)c1ccc(C(=O)NC(=S)N(CCC#N)Cc2cccnc2)cc1` is lower in “hERG current change (%, negative = inhibition) at 1uM” value: 12.3% for the first, 8.4% for the second.
